Cell viability data for 37 molecules are collected here from the supplement of paper PMC9588766.

Where a name gives a salt, the structure may show the parent alone. In all, about 1,900 compounds were measured (“cell viability of compound + 1 nM pemigatinib relative to pemigatinib-only (DMSO) wells”: median about 0.95, lowest 2% from about 0.22 on). The list shows a part of the results.

This test has as its system PDC-DUC18828. In words: cell viability of compound + 1 nM pemigatinib relative to pemigatinib-only (DMSO) wells (fraction); PDC-DUC18828 is a patient-derived cholangiocarcinoma cell line; higher = less growth inhibition. The note with it: first compound 1 µM; pemigatinib concentration 1 nM; 72 h. The procedure: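 Selleck Bioactive library screen in the patient-derived FGFR2 fusion-positive ICC cell line PDC-DUC18828 (500 cells/well). Each compound was tested at 1 uM with 1 nM pemigatinib, in triplicate, for 72 h. Viability was read by CellTiter-Glo and normalised to plate DMSO controls. Value is the paper's averaged normalised viability.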
With `O=C(NOCCO)c1ccc2cncn2c1Nc1ccc(I)cc1F` + CCN1C(=O)N(c2c(F)c(OC)cc(OC)c2F)Cc2cnc3[nH]c(CN4CCOCC4)cc3c21 [pemigatinib], the cell viability is 0.512.

In the case of `NC(=O)Cc1cccc(C(=O)c2ccccc2)c1N` [Nepafenac] + CCN1C(=O)N(c2c(F)c(OC)cc(OC)c2F)Cc2cnc3[nH]c(CN4CCOCC4)cc3c21 [pemigatinib], the cell viability is 0.951.

In the case of `C[C@H]1COC2=C1C(=O)C(=O)c1c2ccc2c1CCCC2(C)C` [Cryptotanshinone] + CCN1C(=O)N(c2c(F)c(OC)cc(OC)c2F)Cc2cnc3[nH]c(CN4CCOCC4)cc3c21 [pemigatinib], the cell viability is 0.877.

In the case of `CN(C)CC[C@H](CSc1ccccc1)Nc1ccc(S(=O)(=O)NC(=O)c2ccc(N3CCN(Cc4ccccc4-c4ccc(Cl)cc4)CC3)cc2)cc1[N+](=O)[O-]` + CCN1C(=O)N(c2c(F)c(OC)cc(OC)c2F)Cc2cnc3[nH]c(CN4CCOCC4)cc3c21 [pemigatinib], the cell viability was 0.742.

On to `CC[C@H]1OC(=O)[C@H](C)[C@@H](O[C@H]2C[C@@](C)(OC)[C@@H](O)[C@H](C)O2)[C@H](C)[C@@H](O[C@@H]2O[C@H](C)C[C@H](N(C)C)[C@H]2O)[C@](C)(OC)C[C@@H](C)C(=O)[C@H](C)[C@@H](O)[C@]1(C)O` [Clarithromycin] + CCN1C(=O)N(c2c(F)c(OC)cc(OC)c2F)Cc2cnc3[nH]c(CN4CCOCC4)cc3c21 [pemigatinib], for which the cell viability came out at 0.946.

`O=[N+]([O-])c1ccc2c(c1)S(=O)(=O)C=C2` [Stattic] + CCN1C(=O)N(c2c(F)c(OC)cc(OC)c2F)Cc2cnc3[nH]c(CN4CCOCC4)cc3c21 [pemigatinib]: the cell viability was found to be 0.715.

Take `CCCCCCCCC/C(=C\C1=C(C)C(=O)C(OC)=C(OC)C1=O)C(=O)O` + CCN1C(=O)N(c2c(F)c(OC)cc(OC)c2F)Cc2cnc3[nH]c(CN4CCOCC4)cc3c21 [pemigatinib]: the cell viability was determined as 0.992.

On to `N=C(N)NC(=O)c1nc(Cl)c(N)nc1N` [Amiloride HCl] + CCN1C(=O)N(c2c(F)c(OC)cc(OC)c2F)Cc2cnc3[nH]c(CN4CCOCC4)cc3c21 [pemigatinib], for which the cell viability came out at 0.967.

With `CN(C)C(=O)COC(=O)Cc1ccc(OC(=O)c2ccc(NC(=N)N)cc2)cc1` [Camostat Mesilate] + CCN1C(=O)N(c2c(F)c(OC)cc(OC)c2F)Cc2cnc3[nH]c(CN4CCOCC4)cc3c21 [pemigatinib], the cell viability came to 0.959.

Take `CC(C)C[C@@H]1NC(=O)[C@@H](C(C)C)NC(=O)[C@@H]2CCCN2C(=O)[C@@H](CC(=O)O)NC(=O)[C@@H](Cc2c[nH]c3ccccc23)NC1=O` + CCN1C(=O)N(c2c(F)c(OC)cc(OC)c2F)Cc2cnc3[nH]c(CN4CCOCC4)cc3c21 [pemigatinib]: the cell viability was 0.969.

Turning to `CCCCOc1c(C(=O)c2c(F)cc(C)cc2F)c[nH]c2nncc1-2` + CCN1C(=O)N(c2c(F)c(OC)cc(OC)c2F)Cc2cnc3[nH]c(CN4CCOCC4)cc3c21 [pemigatinib], the cell viability was determined as 0.881.

`Nc1ccccc1NC(=O)c1ccc(CNC(=O)OCc2cccnc2)cc1` [Entinostat (MS-275)] + CCN1C(=O)N(c2c(F)c(OC)cc(OC)c2F)Cc2cnc3[nH]c(CN4CCOCC4)cc3c21 [pemigatinib]: the cell viability came to 0.982.

With `CCc1cncnc1N1CCN(Cc2nc3ccc(C(F)(F)F)cc3[nH]2)CC1` + CCN1C(=O)N(c2c(F)c(OC)cc(OC)c2F)Cc2cnc3[nH]c(CN4CCOCC4)cc3c21 [pemigatinib], the cell viability was 1.05.

Consider `COc1cc(C(=O)NS(=O)(=O)c2ccccc2C)ccc1Cc1cn(C)c2ccc(NC(=O)OC3CCCC3)cc12` [Zafirlukast] + CCN1C(=O)N(c2c(F)c(OC)cc(OC)c2F)Cc2cnc3[nH]c(CN4CCOCC4)cc3c21 [pemigatinib], for which the cell viability amounted to 1.03.

Turning to `CN[C@H]1CN(c2ccc3c(=O)c(C(=O)O)cn(-c4nccs4)c3n2)C[C@@H]1OC` [Voreloxin (SNS-595)] + CCN1C(=O)N(c2c(F)c(OC)cc(OC)c2F)Cc2cnc3[nH]c(CN4CCOCC4)cc3c21 [pemigatinib], the cell viability was determined as 0.652.

Regarding `Cc1cc(C2CCCCC2)n(O)c(=O)c1` [Ciclopirox] + CCN1C(=O)N(c2c(F)c(OC)cc(OC)c2F)Cc2cnc3[nH]c(CN4CCOCC4)cc3c21 [pemigatinib], the cell viability was 0.554.

For `Cc1cc(C2CCCCC2)n(O)c(=O)c1` [Ciclopirox ethanolamine] + CCN1C(=O)N(c2c(F)c(OC)cc(OC)c2F)Cc2cnc3[nH]c(CN4CCOCC4)cc3c21 [pemigatinib], the cell viability was 0.339.

Regarding `CC1=C(C(=O)OC(C)C)C(c2cccc([N+](=O)[O-])c2)C(C(=O)OC2CN(C(c3ccccc3)c3ccccc3)C2)=C(N)N1` (configuration not stated) [Azelnidipine] + CCN1C(=O)N(c2c(F)c(OC)cc(OC)c2F)Cc2cnc3[nH]c(CN4CCOCC4)cc3c21 [pemigatinib], the cell viability was determined as 0.996.

As to `CCOc1cc([C@@H](CS(C)(=O)=O)N2C(=O)c3cccc(NC(C)=O)c3C2=O)ccc1OC` + CCN1C(=O)N(c2c(F)c(OC)cc(OC)c2F)Cc2cnc3[nH]c(CN4CCOCC4)cc3c21 [pemigatinib], the cell viability was 0.956.

Regarding `NS(=O)(=O)c1cc(C(=O)O)c(NCc2ccco2)cc1Cl` [Furosemide] + CCN1C(=O)N(c2c(F)c(OC)cc(OC)c2F)Cc2cnc3[nH]c(CN4CCOCC4)cc3c21 [pemigatinib], the cell viability was 1.11.

With `O=C(O)c1cc(=O)c2ccccc2o1` [Chromocarb] + CCN1C(=O)N(c2c(F)c(OC)cc(OC)c2F)Cc2cnc3[nH]c(CN4CCOCC4)cc3c21 [pemigatinib], the cell viability came to 1.03.

For the molecule `Cc1ccc(S(=O)(=O)n2c(N)nc3ccccc32)cc1` [ML130 (Nodinitib-1)] + CCN1C(=O)N(c2c(F)c(OC)cc(OC)c2F)Cc2cnc3[nH]c(CN4CCOCC4)cc3c21 [pemigatinib], the cell viability was found to be 0.857.

Regarding `O=C(NCc1ccncc1)C12CC3CC(C1)CC(c1ccc(Cl)cc1)(C3)C2` + CCN1C(=O)N(c2c(F)c(OC)cc(OC)c2F)Cc2cnc3[nH]c(CN4CCOCC4)cc3c21 [pemigatinib], the cell viability turned out to be 0.951.

As for `CCOC(=O)[C@H](CCc1ccccc1)N[C@@H](C)C(=O)N1[C@H](C(=O)O)C[C@@H]2CCC[C@@H]21` [Ramipril] + CCN1C(=O)N(c2c(F)c(OC)cc(OC)c2F)Cc2cnc3[nH]c(CN4CCOCC4)cc3c21 [pemigatinib], the cell viability is 0.949.

Consider `NC(=O)c1ncn([C@@H]2O[C@H](CO)[C@@H](O)[C@H]2O)n1` [Ribavirin] + CCN1C(=O)N(c2c(F)c(OC)cc(OC)c2F)Cc2cnc3[nH]c(CN4CCOCC4)cc3c21 [pemigatinib], for which the cell viability worked out at 1.01.

As for `CNS(=O)(=O)Cc1ccc2[nH]cc(CCN(C)C)c2c1` [Sumatriptan Succinate] + CCN1C(=O)N(c2c(F)c(OC)cc(OC)c2F)Cc2cnc3[nH]c(CN4CCOCC4)cc3c21 [pemigatinib], the cell viability amounted to 1.02.

Regarding `COc1cc2ncnc(Oc3cccc(NC(=O)Nc4cc(C(C)(C)C(F)(F)F)on4)c3)c2cc1OC` + CCN1C(=O)N(c2c(F)c(OC)cc(OC)c2F)Cc2cnc3[nH]c(CN4CCOCC4)cc3c21 [pemigatinib], the cell viability stood at 1.04.

As for `O=C(COc1ccc(Cl)cc1)NC1CCC(NC(=O)COc2ccc(Cl)cc2)CC1` (stereo not drawn) [ISRIB (trans-isomer)] + CCN1C(=O)N(c2c(F)c(OC)cc(OC)c2F)Cc2cnc3[nH]c(CN4CCOCC4)cc3c21 [pemigatinib], the cell viability amounted to 1.

For `O=c1c(O)c(-c2ccc(O)c(O)c2)oc2cc(O)ccc12` [Fisetin] + CCN1C(=O)N(c2c(F)c(OC)cc(OC)c2F)Cc2cnc3[nH]c(CN4CCOCC4)cc3c21 [pemigatinib], the cell viability came out at 0.93.

In the case of `NS(=O)(=O)c1cc2c(cc1Cl)N=CNS2(=O)=O` [Chlorothiazide] + CCN1C(=O)N(c2c(F)c(OC)cc(OC)c2F)Cc2cnc3[nH]c(CN4CCOCC4)cc3c21 [pemigatinib], the cell viability was 0.986.

As to `COc1ccc(-c2cnc3c(-c4cccc5ncccc45)cnn3c2)cc1` + CCN1C(=O)N(c2c(F)c(OC)cc(OC)c2F)Cc2cnc3[nH]c(CN4CCOCC4)cc3c21 [pemigatinib], the cell viability was 0.944.

`COc1ccc(-c2nc3cc(C4=NNC(=O)CC4C)ccc3[nH]2)cc1` (configuration not stated) [Pimobendan] + CCN1C(=O)N(c2c(F)c(OC)cc(OC)c2F)Cc2cnc3[nH]c(CN4CCOCC4)cc3c21 [pemigatinib]: the cell viability is 0.968.

On to `NCC(=O)Nc1ccc(-n2nc(C(F)(F)F)cc2-c2ccc3c(ccc4ccccc43)c2)cc1` + CCN1C(=O)N(c2c(F)c(OC)cc(OC)c2F)Cc2cnc3[nH]c(CN4CCOCC4)cc3c21 [pemigatinib], for which the cell viability was 1.01.

Turning to `O=C(Nc1ccccc1)c1ccccc1O` [Salicylanilide] + CCN1C(=O)N(c2c(F)c(OC)cc(OC)c2F)Cc2cnc3[nH]c(CN4CCOCC4)cc3c21 [pemigatinib], the cell viability came out at 1.02.

For the molecule `FC(F)(F)c1ccc(CNc2ccc(Cc3c[nH]c4ncc(Cl)cc34)cn2)cn1` [Pexidartinib (PLX3397)] + CCN1C(=O)N(c2c(F)c(OC)cc(OC)c2F)Cc2cnc3[nH]c(CN4CCOCC4)cc3c21 [pemigatinib], the cell viability was 0.982.

On to `CC(C)[C@H](CO)Nc1nc(Nc2cccc(Cl)c2)c2ncn(C(C)C)c2n1` [Purvalanol A] + CCN1C(=O)N(c2c(F)c(OC)cc(OC)c2F)Cc2cnc3[nH]c(CN4CCOCC4)cc3c21 [pemigatinib], for which the cell viability came to 0.924.

With `Cc1[nH]c(=O)c(C#N)cc1-c1ccncc1` [Milrinone] + CCN1C(=O)N(c2c(F)c(OC)cc(OC)c2F)Cc2cnc3[nH]c(CN4CCOCC4)cc3c21 [pemigatinib], the cell viability came to 0.984.
